The IC50 comes from the fitted curve, where viability falls to half of the control; where the fit passes the top or lowest dose, that dose stands as a limit. AUC, from the same fit, is the share of area under the viability curve across the 256-fold dose range: 1 means no effect, lower means more sensitive. For some assays here: A top dose marked as inferred comes from the curve model; the source does not state it. For some assays here: Drugs with an entry number were screened twice under separate entries, and the two screens often disagree.
Columns and labels:
Assay in all cases: Viability of human cancer cell lines after 72 h of drug (GDSC screen)
Docetaxel = compound: CC(=O)O[C@@]12CO[C@@H]1C[C@H](O)[C@@]1(C)C(=O)[C@H](O)C3=C(C)[C@@H](OC(=O)[C@H](O)[C@@H](NC(=O)OC(C)(C)C)c4ccccc4)C[C@@](O)([C@@H](OC(=O)c4ccccc4)[C@H]21)C3(C)C [Docetaxel]; conditions: top dose 0.0125 µM
Method: (§1)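 Human cancer cell lines in 384-well plates, medium with 10% serum, drug for 72 h over a 256-fold dose range (nine 2-fold or five 4-fold steps up to the top dose). Adherent lines were fixed and stained with the nucleic acid dye Syto60, suspension lines read with resazurin; signal relative to control wells, capped at 0 and 100%. One two-parameter sigmoid per drug and line, fitted in a mixed model over all curves with the slope shared within a line.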

AMG-706 = compound: CC1(C)CNc2cc(NC(=O)c3cccnc3NCc3ccncc3)ccc21 [AMG-706]; conditions: top dose 2 µM; top dose inferred
Method: as §1

Cyclopamine = compound: CC1=C2C[C@H]3[C@@H](CC=C4C[C@@H](O)CC[C@@]43C)[C@@H]2CC[C@]12O[C@@H]1C[C@H](C)CN[C@H]1[C@H]2C [Cyclopamine]; conditions: top dose 16 µM; top dose inferred
Method: as §1

JNK Inhibitor VIII = compound: CCOc1nc(NC(=O)Cc2cc(OC)ccc2OC)cc(N)c1C#N [JNK Inhibitor VIII]; conditions: top dose 10 µM; top dose inferred
Method: as §1

NSC-207895 = compound: CN1CCN(c2ccc([N+](=O)[O-])c3no[n+]([O-])c23)CC1 [NSC-207895]; conditions: top dose 20 µM; top dose inferred
Method: as §1

FTI-277 = compound: COC(=O)[C@H](CCSC)NC(=O)c1ccc(NC[C@@H](N)CS)cc1-c1ccccc1 [FTI-277]; conditions: top dose 1.024 µM; top dose inferred
Method: as §1

YM155 = compound: COCC[n+]1c2c(n(Cc3cnccn3)c1C)C(=O)c1ccccc1C2=O [YM155]; conditions: top dose 5.12 µM
Method: as §1

NVP-TAE684 = compound: COc1cc(N2CCC(N3CCN(C)CC3)CC2)ccc1Nc1ncc(Cl)c(Nc2ccccc2S(=O)(=O)C(C)C)n1 [NVP-TAE684]; conditions: top dose 2 µM
Method: as §1

OSI-906 = compound: C[C@]1(O)C[C@@H](c2nc(-c3ccc4ccc(-c5ccccc5)nc4c3)c3c(N)nccn32)C1 [OSI-906]; conditions: top dose 2.56 µM; top dose inferred
Method: as §1

SB-715992 = compound: Cc1ccc(C(=O)N(CCCN)[C@@H](c2nc3cc(Cl)ccc3c(=O)n2Cc2ccccc2)C(C)C)cc1 [SB-715992]; conditions: top dose 0.128 µM; top dose inferred
Method: as §1

JQ1 = compound: Cc1sc2c(c1C)C(c1ccc(Cl)cc1)=N[C@@H](CC(=O)OC(C)(C)C)c1nnc(C)n1-2 [JQ1]
Method: as §1

Belinostat = compound: O=C(/C=C/c1cccc(S(=O)(=O)Nc2ccccc2)c1)NO [Belinostat]; conditions: top dose 20 µM; top dose inferred
Method: as §1

CGP-60474 = compound: OCCCNc1cc(-c2ccnc(Nc3cccc(Cl)c3)n2)ccn1 [CGP-60474]; conditions: top dose 0.256 µM; top dose inferred
Method: as §1

JNJ-26854165 = compound: c1ccc2c(CCNc3ccc(Nc4ccncc4)cc3)c[nH]c2c1 [JNJ-26854165]; conditions: top dose 10 µM
Method: as §1

[1] = top dose 1 µM, screen: GDSC drug entry 1218, top dose inferred
[2] = top dose 2.56 µM, screen: GDSC drug entry 163

Cell Line | AUC (Docetaxel) | IC50 (Docetaxel) | AUC (AMG-706) | IC50 (AMG-706) | AUC (Cyclopamine) | IC50 (Cyclopamine) | AUC (JNK Inhibitor VIII) | IC50 (JNK Inhibitor VIII) | AUC (NSC-207895) | IC50 (NSC-207895) | AUC (FTI-277) | IC50 (FTI-277) | AUC (YM155) | IC50 (YM155) | AUC (NVP-TAE684) | AUC (OSI-906) | IC50 (OSI-906) | AUC (SB-715992) | IC50 (SB-715992) | AUC (JQ1; [1]) | IC50 (JQ1; [1]) | AUC (JQ1; [2]) | IC50 (JQ1; [2]) | AUC (Belinostat) | IC50 (Belinostat) | AUC (CGP-60474) | IC50 (CGP-60474) | AUC (JNJ-26854165) | IC50 (JNJ-26854165) | IC50 (NVP-TAE684)
OCI-AML2 (acute myeloid leukaemia, suspension) | 0.978 | > 12.5 nM | 0.995 | > 2000 nM | 0.955 | > 16000 nM | 0.994 | > 10000 nM | 0.872 | 11300 nM | 0.989 | > 1020 nM | 0.055 | < 20 nM | 0.738 | 0.976 | > 2560 nM | 0.687 | 22.9 nM | 0.679 | 171 nM | 0.507 | 166 nM | 0.22 | 252 nM | 0.726 | 57.4 nM | 0.96 | > 10000 nM | –
OCI-M1 (acute myeloid leukaemia, suspension) | 0.994 | > 12.5 nM | 0.993 | > 2000 nM | 0.995 | > 16000 nM | 0.991 | > 10000 nM | 0.792 | 6770 nM | 0.995 | > 1020 nM | 0.114 | 30.4 nM | 0.96 | 0.995 | > 2560 nM | 0.818 | 51.4 nM | 0.839 | 464 nM | 0.665 | 407 nM | 0.094 | 100 nM | 0.894 | 180 nM | 0.983 | > 10000 nM | > 2000 nM
P32-ISH (Burkitt lymphoma, suspension) | 0.954 | > 12.5 nM | 0.995 | > 2000 nM | 0.887 | 10200 nM | 0.995 | > 10000 nM | 0.596 | 2140 nM | 0.995 | > 1020 nM | 0.01 | < 20 nM | 0.812 | 0.987 | > 2560 nM | 0.662 | 19.9 nM | 0.839 | 453 nM | 0.568 | 234 nM | 0.163 | 174 nM | 0.567 | 23.3 nM | 0.933 | 9770 nM | 760 nM
REH (B-cell leukaemia, suspension) | 0.869 | 10.8 nM | 0.987 | > 2000 nM | 0.963 | > 16000 nM | 0.987 | > 10000 nM | 0.853 | 14700 nM | 0.979 | > 1020 nM | 0.023 | < 20 nM | 0.95 | 0.89 | > 2560 nM | 0.63 | 18 nM | 0.916 | > 1000 nM | 0.782 | 1030 nM | 0.239 | 228 nM | 0.96 | > 256 nM | 0.893 | > 10000 nM | > 2000 nM

— the supplement of paper PMC4967469
